Screen size: about 410,000 compounds; about 6,400 (1.6%) were called active. The shares of active, inactive and inconclusive entries below differ from those in the screen. The call rests on the fitted dose curve; in most records, active means well fitted inhibition curve with a large enough effect; inconclusive means small, poorly fitted or top-dose-only effect; inactive means no such curve, though single readings can be large or run the other way. Where the call is inconclusive, the potency comes from a doubtful curve fit.
Molecular target: Glucagon-like peptide 1 receptor (Homo sapiens) (UniProt P43220)
Test: qHTS of GLP-1 Receptor Inverse Agonists (Inhibition Mode); further: nearly all actives have a fitted effect of over 55% in size
Details: HEK293 GLP-1R CRE-luciferase, luminescence, 24 h, GLP-1R form is constitutively active; activity change, negative = inhibition: at 38.3 µM (top of the series) unless noted
Outline: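 Inverse agonism was detected as reduced cAMP-driven luciferase luminescence after 24 h compound treatment. The cells were HEK293 clones expressing constitutively active human GLP-1R with the reporter. Reporter-only and GPR119 cell lines served as counterscreen controls.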
On the % scale 0 is the no-effect control and ±100 the full control effect; potency means the concentration at half of the fitted maximal effect; tags describe the fitted curve by direction and shape.

Chain of UniProt P43220 (P43220 whole entry, looked up): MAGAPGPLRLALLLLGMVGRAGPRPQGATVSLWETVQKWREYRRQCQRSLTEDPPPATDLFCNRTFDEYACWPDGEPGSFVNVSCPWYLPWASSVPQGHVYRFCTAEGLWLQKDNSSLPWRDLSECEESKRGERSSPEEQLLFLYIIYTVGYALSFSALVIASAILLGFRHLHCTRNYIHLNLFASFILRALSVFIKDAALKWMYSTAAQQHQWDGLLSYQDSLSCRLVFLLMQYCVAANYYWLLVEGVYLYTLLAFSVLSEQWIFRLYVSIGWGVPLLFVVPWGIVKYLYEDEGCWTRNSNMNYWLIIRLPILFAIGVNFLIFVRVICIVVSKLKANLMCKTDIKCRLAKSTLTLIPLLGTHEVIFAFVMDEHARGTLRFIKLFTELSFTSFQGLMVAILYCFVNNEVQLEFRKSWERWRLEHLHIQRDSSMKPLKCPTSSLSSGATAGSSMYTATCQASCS

Potency, active:
O=c1[nH]nc(Sc2ncnc3sccc23)n1CCc1ccccc1 5.62 µM
COCC1CCCN(C(=O)c2ccc3oc(Cc4ccc(Cl)cc4)nc3c2)C1 (stereo not given) 10 µM
CCN(CC)C(=O)c1sc2c(c1C)c(=O)n(-c1ccc(C)c(C)c1)c(=O)n2Cc1cccc(Cl)c1 5.01 µM

Potency, inconclusive:
Cc1ccc2c(c1)C1CN(C)CCC1N2S(=O)(=O)c1ccc(C#N)cc1 (stereo not given) 28.2 µM [inhibitor, single point]
OC[C@@H]1CN(Cc2ccc(Cl)cc2)C[C@H](n2cnc3c(N4CCN(c5ccccc5)CC4)ncnc32)O1 15.8 µM [inhibitor, partial curve, poor fit]
Cc1c(NC(=O)c2cc3c(s2)-c2ccccc2OC3)cccc1[N+](=O)[O-] 5.62 µM [inhibitor, full curve, poor fit]
CCOc1ccc(C(=O)c2cn(Cc3ccccc3)c3c(F)cc(F)cc3c2=O)cc1 7.94 µM [inhibitor, partial curve, poor fit]
CCCCc1ccc(NS(=O)(=O)c2ccc(N3CCCCS3(=O)=O)cc2)cc1 28.2 µM [inhibitor, single point]
Cc1cccc(-n2nnc(C(=O)Nc3ccc(F)cc3)c2N)c1 11.2 µM [inhibitor, partial curve, poor fit]
C(=C\c1nc(N2CCCC2)c2ccccc2n1)/c1ccccc1 8.91 µM [inhibitor, partial curve, poor fit]
COc1cc2cc(CN(CCc3ccccc3C)C(=S)NCCCN3CCOCC3)c(=O)[nH]c2cc1OC 28.2 µM [inhibitor, single point]
O=C(Nc1ccc(S(=O)(=O)N2CCc3ccccc3C2)cc1)C1CCCO1 (stereo not given) 10 µM [inhibitor, partial curve, poor fit]
CC(C)C1OC(CCc2ccccc2)Cc2[nH][nH]c(=O)c21 (stereo not given) 11.2 µM [inhibitor, partial curve, poor fit]
Cc1ccc(Nc2nc3ccccc3[nH]2)nc1 20 µM [inhibitor, single point]
Cc1nc2c(OCCOc3ccc(F)cc3)cccn2c1N(C)C(=O)CCC1CCCC1 28.2 µM [inhibitor, single point]
Cc1cccc(C)c1NC(=O)c1c[nH]c2ccccc12 8.91 µM [inhibitor, single point]
CCC(c1nnnn1-c1ccc2c(c1)OCCO2)N1CCN(c2cccc(C)c2C)CC1 (stereo not given) 28.2 µM [inhibitor, single point]
Cc1ccc(N(CC(=O)Nc2cc(C)cc(C)c2)S(=O)(=O)c2c(C)noc2C)cc1 1.58 µM [inhibitor, full curve, poor fit]
O=C(Nc1c(-c2ccc(F)cc2)nc2ccccn12)c1cccc(F)c1 11.2 µM [inhibitor, single point]
CC(C)c1ccc(NC(=O)c2ccc3c(c2)C(=O)N(Cc2cccnc2)C3=O)cc1 7.94 µM [inhibitor, partial curve, poor fit]
CCCc1nc(SCC(=O)c2ccc(OC)cc2)c2ccccc2n1 1 µM [inhibitor, full curve, poor fit]
CS(=O)(=O)c1nc(S(=O)(=O)c2ccc(Cl)cc2)c(N2CCN(CCO)CC2)s1 14.1 µM [inhibitor, single point]
COc1ccc(N(C(C)C(=O)N/N=C/c2ccc(OCC(C)C)cc2)S(C)(=O)=O)cc1 (stereo not given) 22.4 µM [inhibitor, single point]
Fc1ccc(-c2csc(Nc3ccccn3)n2)c(F)c1 11.2 µM [inhibitor, partial curve, poor fit]
CC(C)(C)N(Cc1ccccc1)C(=O)COC(=O)Cn1cnc2ccccc2c1=O 5.62 µM [inhibitor, partial curve]
Cc1cc(C)n(S(=O)(=O)c2ccc(C)c(C)c2C)n1 22.4 µM [inhibitor, single point]
O=C1c2ccccc2NC(c2ccc(Cl)cc2Cl)N1O (stereo not given) 2 µM [inhibitor, full curve, poor fit]
C=C1CC(COc2ccc3c(C)c(Cl)c(=O)oc3c2)(c2ccccc2)OC1=O (stereo not given) 28.2 µM [inhibitor, single point]
c1ccc(-c2ccccc2OCCOCCN2CCCCC2)cc1 8.91 µM [inhibitor, partial curve, poor fit]
COc1ccc(CCC(=O)N2CCN(c3cccc(C)c3C)CC2)cc1 28.2 µM [inhibitor, single point]
O=C(CN1CCN(c2cccc(Cl)c2)CC1)Nc1ccc(S(=O)(=O)N2CCOCC2)cc1 14.1 µM [inhibitor, single point]
CNC(=S)N(CCc1c(C)[nH]c2ccccc12)Cc1ccco1 10 µM [inhibitor, single point]
Cc1cc(Cl)nc(Cl)c1C(=O)NCc1ccc(Cl)cc1 17.8 µM [inhibitor, single point]

Activity change, negative = inhibition, inactive:
C/C(CC(=O)Nc1ccc(Cl)cc1Cl)=N\NC(=O)C(=O)N1CCCC1 -17.8%
O=C(N/N=C/c1cc(Cl)cc([N+](=O)[O-])c1O)c1ccccc1NS(=O)(=O)c1cccs1 9.06%
Cc1c(C(=O)Nc2ccc(F)c(F)c2)oc2ccc(S(=O)(=O)N3CCC4(CC3)OCCO4)cc12 5.69%
Cc1ccccc1NC(=O)CN1CCN(Cc2ccccc2)CC1 -21.5%
CCC(Sc1nc2cc3c(cc2c(=O)n1CCCC(=O)NCc1ccc(OC)cc1)OCO3)C(=O)NCCCOC (stereo not given) 13.6%
Cc1ccc(OCC(=O)Nc2ccc3nc(SCC(=O)N4CCOCC4)sc3c2)cc1C 3.24%
Cc1ccc2cccc(NC(=O)c3ccc(C#N)cc3F)c2n1 2.27%
